These results are taken from ChEMBL document CHEMBL3745712, “Identification of N-(4-((1R,3S,5S)-3-Amino-5-methylcyclohexyl)pyridin-3-yl)-6-(2,6-difluorophenyl)-5-fluoropicolinamide (PIM447), a Potent and Selective Proviral Insertion Site of Moloney Murine Leukemia (PIM) 1, 2, and 3 Kinase Inhibitor in Clinical Trials for Hematological Malignancies” (J Med Chem, 2015).

One series in a line: cells. The following applies: Homo sapiens, KMS-11, 1 h. It is filed as cell-based, KMS11.
Series [1] can be described thus: in vitro. The following applies: rat, microsomes.
Series [2] is described as follows: in vitro. The following applies: rat, microsomes. This is another data set of the same source.
Series [3] can be described thus: in vitro. Conditions: human, microsomes.
The target of series [4] is Serine/threonine-protein kinase pim-1 (Homo sapiens, UniProt P11309).
Series [5] addresses Serine/threonine-protein kinase pim-3 (Homo sapiens, UniProt Q86V86).
Series [6] in a line: in vitro. Conditions: human, microsomes. The source holds these as a separate data set.
For series [7], the target named is Phosphatidylinositol 4,5-bisphosphate 3-kinase catalytic subunit alpha isoform (Homo sapiens, UniProt P42336).
Chain of Phosphatidylinositol 4,5-bisphosphate 3-kinase catalytic subunit alpha isoform (P42336 whole entry, canonical isoform): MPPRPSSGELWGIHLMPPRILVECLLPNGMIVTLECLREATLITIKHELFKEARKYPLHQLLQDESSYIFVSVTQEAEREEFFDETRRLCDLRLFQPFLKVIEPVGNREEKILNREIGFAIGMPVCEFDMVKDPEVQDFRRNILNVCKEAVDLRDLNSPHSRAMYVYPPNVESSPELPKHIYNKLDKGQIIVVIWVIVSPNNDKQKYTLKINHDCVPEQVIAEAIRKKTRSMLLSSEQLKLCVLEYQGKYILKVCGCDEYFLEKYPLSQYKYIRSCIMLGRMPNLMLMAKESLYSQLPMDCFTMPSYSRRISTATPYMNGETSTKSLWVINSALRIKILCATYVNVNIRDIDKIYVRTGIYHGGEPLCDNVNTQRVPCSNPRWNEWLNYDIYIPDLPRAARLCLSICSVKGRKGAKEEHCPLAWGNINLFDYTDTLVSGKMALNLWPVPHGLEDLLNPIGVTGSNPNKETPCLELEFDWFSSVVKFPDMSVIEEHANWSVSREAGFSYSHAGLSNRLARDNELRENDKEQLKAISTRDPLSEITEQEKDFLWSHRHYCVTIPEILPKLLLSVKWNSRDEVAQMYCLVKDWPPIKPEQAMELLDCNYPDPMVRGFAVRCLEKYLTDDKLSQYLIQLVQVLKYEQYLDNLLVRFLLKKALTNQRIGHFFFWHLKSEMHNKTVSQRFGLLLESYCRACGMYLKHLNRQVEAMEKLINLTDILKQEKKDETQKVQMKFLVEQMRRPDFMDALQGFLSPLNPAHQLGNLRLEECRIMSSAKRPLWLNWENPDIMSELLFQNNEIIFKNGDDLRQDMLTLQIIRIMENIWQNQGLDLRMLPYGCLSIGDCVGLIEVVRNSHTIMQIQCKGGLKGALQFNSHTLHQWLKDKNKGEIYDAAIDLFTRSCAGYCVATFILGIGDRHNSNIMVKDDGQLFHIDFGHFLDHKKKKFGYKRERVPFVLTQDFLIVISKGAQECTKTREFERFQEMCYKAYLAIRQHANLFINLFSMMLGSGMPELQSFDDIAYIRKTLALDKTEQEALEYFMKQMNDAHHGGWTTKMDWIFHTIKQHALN
The target of series [8] is Phosphatidylinositol 4,5-bisphosphate 3-kinase catalytic subunit beta isoform (Homo sapiens, UniProt P42338).
For series [9], the target named is T1, Phosphatidylinositol 4,5-bisphosphate 3-kinase catalytic subunit delta isoform (Homo sapiens, UniProt O00329).
T1 sequence (O00329 whole entry): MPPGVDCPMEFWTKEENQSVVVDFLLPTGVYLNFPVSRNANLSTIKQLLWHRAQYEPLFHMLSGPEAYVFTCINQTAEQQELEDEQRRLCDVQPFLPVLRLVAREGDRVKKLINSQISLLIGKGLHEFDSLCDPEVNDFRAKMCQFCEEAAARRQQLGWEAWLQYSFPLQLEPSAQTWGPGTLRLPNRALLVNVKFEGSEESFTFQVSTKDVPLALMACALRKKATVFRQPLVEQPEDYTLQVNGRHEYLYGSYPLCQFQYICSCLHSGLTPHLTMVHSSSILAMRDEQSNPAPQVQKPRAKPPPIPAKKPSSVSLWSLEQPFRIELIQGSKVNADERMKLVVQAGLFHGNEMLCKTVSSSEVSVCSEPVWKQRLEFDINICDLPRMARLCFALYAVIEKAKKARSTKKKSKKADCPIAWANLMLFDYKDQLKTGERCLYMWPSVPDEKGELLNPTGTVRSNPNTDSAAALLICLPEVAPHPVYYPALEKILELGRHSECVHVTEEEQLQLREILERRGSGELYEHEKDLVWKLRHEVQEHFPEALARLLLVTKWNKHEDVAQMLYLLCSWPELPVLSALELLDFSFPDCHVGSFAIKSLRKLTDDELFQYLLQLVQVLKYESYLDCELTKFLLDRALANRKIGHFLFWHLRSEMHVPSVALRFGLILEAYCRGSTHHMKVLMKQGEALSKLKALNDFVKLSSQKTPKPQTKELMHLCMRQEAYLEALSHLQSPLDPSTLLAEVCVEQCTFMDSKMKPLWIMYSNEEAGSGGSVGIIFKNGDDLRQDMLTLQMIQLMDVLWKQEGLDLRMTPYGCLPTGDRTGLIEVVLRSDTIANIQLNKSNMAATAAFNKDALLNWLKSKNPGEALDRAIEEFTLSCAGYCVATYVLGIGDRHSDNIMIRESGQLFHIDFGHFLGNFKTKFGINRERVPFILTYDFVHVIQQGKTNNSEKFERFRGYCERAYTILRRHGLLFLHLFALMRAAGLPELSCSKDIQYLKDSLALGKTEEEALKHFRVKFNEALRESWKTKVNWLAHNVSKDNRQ

For series [10], the target named is Phosphatidylinositol 4,5-bisphosphate 3-kinase catalytic subunit gamma isoform (Homo sapiens, UniProt P48736).
Series [11] addresses Phosphatidylinositol 4-kinase beta (Homo sapiens, UniProt Q9UBF8).
In series [12] the target is Phosphatidylinositol 3-kinase catalytic subunit type 3 (Homo sapiens, UniProt Q8NEB9).
Chain of Phosphatidylinositol 3-kinase catalytic subunit type 3 (Q8NEB9 whole entry): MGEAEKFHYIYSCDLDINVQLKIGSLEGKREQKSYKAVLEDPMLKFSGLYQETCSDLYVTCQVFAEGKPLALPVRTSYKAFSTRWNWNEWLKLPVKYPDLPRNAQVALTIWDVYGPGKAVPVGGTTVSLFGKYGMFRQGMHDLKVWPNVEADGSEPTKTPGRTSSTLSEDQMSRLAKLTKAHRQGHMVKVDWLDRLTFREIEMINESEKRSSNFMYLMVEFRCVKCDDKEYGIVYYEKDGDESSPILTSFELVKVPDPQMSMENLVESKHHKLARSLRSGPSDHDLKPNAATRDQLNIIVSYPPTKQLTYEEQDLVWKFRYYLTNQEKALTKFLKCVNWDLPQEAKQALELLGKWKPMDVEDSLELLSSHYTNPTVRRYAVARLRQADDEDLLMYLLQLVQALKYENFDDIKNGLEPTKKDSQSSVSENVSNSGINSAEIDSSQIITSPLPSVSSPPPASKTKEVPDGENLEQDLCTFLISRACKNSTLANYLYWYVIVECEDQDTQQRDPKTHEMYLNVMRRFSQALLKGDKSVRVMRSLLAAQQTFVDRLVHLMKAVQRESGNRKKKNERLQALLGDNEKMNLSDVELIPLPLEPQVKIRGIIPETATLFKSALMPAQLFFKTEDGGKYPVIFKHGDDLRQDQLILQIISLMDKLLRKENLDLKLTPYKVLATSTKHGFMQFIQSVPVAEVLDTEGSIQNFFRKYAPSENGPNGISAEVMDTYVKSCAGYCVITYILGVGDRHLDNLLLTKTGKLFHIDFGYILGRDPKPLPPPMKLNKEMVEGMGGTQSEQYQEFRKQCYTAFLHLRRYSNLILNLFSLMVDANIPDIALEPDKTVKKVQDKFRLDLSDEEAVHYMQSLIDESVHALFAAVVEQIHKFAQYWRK
For series [13], the target named is Serine/threonine-protein kinase mTOR (Homo sapiens, UniProt P42345).
Series [14] concerns the target Glycogen synthase kinase-3 beta (Homo sapiens, UniProt P49841).
The target in series [15] is Protein kinase C theta type (Homo sapiens, UniProt Q04759).
Chain of Protein kinase C theta type (Q04759 whole entry): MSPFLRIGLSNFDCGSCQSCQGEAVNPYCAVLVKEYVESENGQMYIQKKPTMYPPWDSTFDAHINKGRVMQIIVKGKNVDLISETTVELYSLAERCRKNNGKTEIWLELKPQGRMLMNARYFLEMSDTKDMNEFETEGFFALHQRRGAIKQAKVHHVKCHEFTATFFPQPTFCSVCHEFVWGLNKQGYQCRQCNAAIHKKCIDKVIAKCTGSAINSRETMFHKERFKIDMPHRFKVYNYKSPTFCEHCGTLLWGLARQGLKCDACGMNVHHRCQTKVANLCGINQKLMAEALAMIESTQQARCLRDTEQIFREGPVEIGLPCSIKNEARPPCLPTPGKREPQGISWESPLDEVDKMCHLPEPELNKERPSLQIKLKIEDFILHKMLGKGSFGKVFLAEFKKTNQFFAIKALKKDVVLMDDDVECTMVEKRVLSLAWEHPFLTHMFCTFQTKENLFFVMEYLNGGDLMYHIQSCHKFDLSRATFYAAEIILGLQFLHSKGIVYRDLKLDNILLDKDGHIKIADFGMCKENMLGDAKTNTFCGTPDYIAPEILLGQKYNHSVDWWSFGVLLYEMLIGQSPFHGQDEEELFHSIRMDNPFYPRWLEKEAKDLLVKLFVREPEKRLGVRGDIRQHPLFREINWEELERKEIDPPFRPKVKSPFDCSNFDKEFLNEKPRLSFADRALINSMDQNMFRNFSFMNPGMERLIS
In series [16] the target is Serine/threonine-protein kinase N1 (Homo sapiens, UniProt Q16512).
The target in series [17] is Voltage-gated inwardly rectifying potassium channel KCNH2 (Homo sapiens, UniProt Q12809).
Chain of Voltage-gated inwardly rectifying potassium channel KCNH2 (Q12809 whole entry): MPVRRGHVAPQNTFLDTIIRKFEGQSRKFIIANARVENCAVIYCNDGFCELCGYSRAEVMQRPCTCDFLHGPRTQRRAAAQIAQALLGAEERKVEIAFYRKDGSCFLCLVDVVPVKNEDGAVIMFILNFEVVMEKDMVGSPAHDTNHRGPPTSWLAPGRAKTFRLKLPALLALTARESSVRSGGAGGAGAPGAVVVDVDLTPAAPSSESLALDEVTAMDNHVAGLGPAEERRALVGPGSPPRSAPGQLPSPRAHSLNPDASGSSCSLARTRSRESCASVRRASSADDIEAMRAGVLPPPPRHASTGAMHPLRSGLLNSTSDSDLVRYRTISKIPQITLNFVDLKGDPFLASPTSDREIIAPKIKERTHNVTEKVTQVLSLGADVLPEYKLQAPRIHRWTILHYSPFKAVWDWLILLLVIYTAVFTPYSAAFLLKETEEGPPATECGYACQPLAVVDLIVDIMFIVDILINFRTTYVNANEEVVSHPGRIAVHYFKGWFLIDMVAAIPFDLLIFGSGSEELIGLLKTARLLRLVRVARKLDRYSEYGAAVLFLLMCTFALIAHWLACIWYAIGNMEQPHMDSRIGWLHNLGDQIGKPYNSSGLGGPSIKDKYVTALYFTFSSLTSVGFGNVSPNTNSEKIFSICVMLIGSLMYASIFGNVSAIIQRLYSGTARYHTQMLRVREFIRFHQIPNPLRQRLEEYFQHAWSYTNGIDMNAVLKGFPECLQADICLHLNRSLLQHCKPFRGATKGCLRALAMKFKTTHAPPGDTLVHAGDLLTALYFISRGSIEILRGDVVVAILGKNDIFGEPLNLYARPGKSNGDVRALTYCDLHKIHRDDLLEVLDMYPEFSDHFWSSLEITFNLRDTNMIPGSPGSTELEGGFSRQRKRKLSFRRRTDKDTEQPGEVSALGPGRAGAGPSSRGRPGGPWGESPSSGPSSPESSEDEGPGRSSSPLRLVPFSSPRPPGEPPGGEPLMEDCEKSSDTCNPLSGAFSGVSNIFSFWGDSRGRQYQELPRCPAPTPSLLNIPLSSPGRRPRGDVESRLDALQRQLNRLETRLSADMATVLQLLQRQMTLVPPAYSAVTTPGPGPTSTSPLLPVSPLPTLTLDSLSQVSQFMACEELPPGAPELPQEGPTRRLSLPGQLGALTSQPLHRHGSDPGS
The nature of series [18]: in vivo. Conditions: mouse, po.
The nature of series [19]: in vivo. Conditions: mouse.
Series [20] in a line: in vivo. The following applies: rat.
Series [21] can be described thus: in vivo. Conditions: dog.
A short description of series [22]: in vivo. The following applies: mouse, po. This is another data set of the same source.
A short description of series [23]: in vivo. The following applies: rat, po.
Series [24] in a line: in vivo. The following applies: dog, po.
Series [25] can be described thus: physchem. The following applies: octanol/water, pH 6.8.
The nature of series [26]: physchem.
Series [27] can be described thus: physchem. The following applies: buffer, pH 1.
A short description of series [28]: physchem. Conditions: buffer, pH 3.
Series [29] in a line: physchem. The following applies: buffer, pH 6.8.
A short description of series [30]: in vitro. The following applies: human, plasma.

Converted amounts (≈) assume the structure as drawn.

Chain of Phosphatidylinositol 4-kinase beta (Q9UBF8 whole entry): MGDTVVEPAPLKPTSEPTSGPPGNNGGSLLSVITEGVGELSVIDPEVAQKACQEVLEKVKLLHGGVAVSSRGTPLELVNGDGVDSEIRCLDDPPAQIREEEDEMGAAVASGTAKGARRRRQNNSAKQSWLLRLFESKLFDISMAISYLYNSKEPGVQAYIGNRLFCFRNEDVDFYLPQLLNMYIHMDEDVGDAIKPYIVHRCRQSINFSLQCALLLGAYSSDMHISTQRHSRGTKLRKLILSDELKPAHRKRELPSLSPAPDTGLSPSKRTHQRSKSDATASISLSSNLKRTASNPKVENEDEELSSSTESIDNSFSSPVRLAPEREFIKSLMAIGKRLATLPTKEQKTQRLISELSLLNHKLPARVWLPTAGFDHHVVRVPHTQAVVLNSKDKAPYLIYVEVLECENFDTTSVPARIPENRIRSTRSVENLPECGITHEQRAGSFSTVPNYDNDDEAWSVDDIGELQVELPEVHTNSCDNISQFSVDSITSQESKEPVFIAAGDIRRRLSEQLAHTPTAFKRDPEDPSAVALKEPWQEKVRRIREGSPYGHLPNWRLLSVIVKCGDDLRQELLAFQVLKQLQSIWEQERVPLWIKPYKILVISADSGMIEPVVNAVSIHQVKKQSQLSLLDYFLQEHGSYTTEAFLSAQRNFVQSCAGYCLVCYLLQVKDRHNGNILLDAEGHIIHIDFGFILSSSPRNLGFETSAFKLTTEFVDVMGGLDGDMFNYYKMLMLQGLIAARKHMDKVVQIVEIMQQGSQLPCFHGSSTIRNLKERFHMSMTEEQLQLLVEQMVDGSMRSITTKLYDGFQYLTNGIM

Regarding `C[C@H]1C[C@@H](c2ccncc2NC(=O)c2ccc(F)c(-c3c(F)cccc3F)n2)C[C@@H](N)[C@@H]1O`, the response in “cells” was half-maximal at 0.91 µM (EC50). Also, the half-life (commonly the time needed for the level to fall by half in the phase considered) at 0.5 h, 1 µM in “in vitro [1]” was 1.53 h. Also, the figures for the CLhep predicted at 0.5 h, 1 µM in “in vitro [2]” and in the series “in vitro [3]” were 20 mL/min/kg and 10 mL/min/kg, respectively.

Consider `N[C@H]1CCC[C@@H](c2ccncc2NC(=O)c2ccc(F)c(-c3c(F)cccc3F)n2)C1`, for which the Ki (commonly the dissociation constant of the complex between target and ligand, obtained from inhibition or displacement) was under 0.001 µM in [4] and under 0.003 µM in series [5]. In addition, the half-life at 0.5 h, 1 µM was 0.7 h in “in vitro [1]” and 1.78 h in “in vitro [6]”. In addition, the results for the CLhep predicted at 0.5 h, 1 µM in the series “in vitro [2]” and in the series “in vitro [3]” were 30 mL/min/kg and 9 mL/min/kg, respectively.

On to `C[C@@H]1C[C@H](N)C[C@H](c2ccncc2NC(=O)c2ccc(F)c(-c3c(F)cccc3F)n2)C1` [LGH-447], for which the IC50 in series [7], in [8], in series [9], in series [10], in series [11] and in series [12] was over 9.1 µM each time. Also, the IC50 (as a rule, the concentration that gives 50% inhibition) in [13] was over 9.1 µM; in [14], 1.3 µM; in series [15], 4.1 µM; in series [16], 4.9 µM; in series [17] it was 12 µM. Also, the fraction unbound – broadly, the share of the substance not bound to proteins or other matrix – at 24 h in “in vivo [18]” was 0.05. Moreover, the Vd – broadly, a proportionality between amount in the body and measured concentration, not a real space – in the series “in vivo [19]” came out at 5.3 L/kg; in “in vivo [20]”, 6.4 L/kg; in the series “in vivo [21]”, 3.6 L/kg. For the same compound, the bioavailability (usually dose-corrected exposure relative to a reference, in per cent) in “in vivo [22]” was 84%; in the series “in vivo [23]”, 70%; in “in vivo [24]”, 71%. In addition, in “physchem [25]”, the logD (in general, lipophilicity at a set pH, counting ionised and neutral species) is 1.1. Besides, the pKa (commonly the negative logarithm of the acid dissociation constant) in the series “physchem [26]” is 4.2. Moreover, the solubility (as a rule, the dissolved amount per volume that the medium holds) in the series “physchem [27]” was over 45 mM; in “physchem [28]” it was 4 mM (≈ 1760 µg/mL); in the series “physchem [29]”, 0.5 mM (≈ 220 µg/mL). In addition, the free fraction (fraction unbound) in the series “in vitro [30]” is 0.05.
